# This is one part of the list.
# B1: Epa1-NP-mutant-E227A (Candida glabrata), Q6VBJ0 (protein)
# chain: MILNPALFLNKCVCIYTTLILLLLTNGGYATSSNDISLASKDPTTFPLGCSPDITTPKKGLSMELYSYDFRKKGSYPCWDAAYLDPNYPRTGYKSHRLLAKVDGVTGNINFYYHATKGCTPQLGHLPASYNYPKPLTMTNFTMLLYGYFRPKVTGFHTFTISADDLLFVNFGAGNAFDCCRRDSSADHFGNYQAYAIWGSKTAKDELTVHLDAGVYYPIRLFYNNRAYDGALSFTFKTESNENTVSDFSEYFFSLDDTEEGCPGLISYDSSCASVKTSKIIGIDYHTETPNENLVPITKTIYHLGIPCTGTTTTPLCGSGFYDPLANKCVTINTSSTSSVTKTTSHTTSKEVSFHSSISSQKTLIPKSIPSPYGPIKSQSIPTEMETSSEISSSEYAFSDVISTPSHSPYTKKHSSLNSSSYTSTVIHSLTSYSISQGIFSTSLSEQNITSKSSTDKFSTATSMSNNITQSSIIISQFSTNNENYTTTSMHTSSDKISTETLNNSISTTTSILFSNSSTILKNNTTIISSDKDTHYHPVNPTIVCSTNKTEIICASITQPSISNSNNHWSSSVLKFNSTTVRSTLPSSAGSNETSINVPFSSSTESNTSTSSTSTSNSKMVRSTLPSSAGSNETSISVPFSSSTESNTSTSSTSTSNSKMVRSTLPSSAGSNETSINVPFSSSTESNTSTSSTSTSNSKTVRSTPFSSAGIIMTSLSQRNNKSASSYASSNSKCYNTADSCRKVHSTPSYLLTSSYTSEGVDYDCSLVSTKLKINDTNCVNNKHTTKSCLKTSVTTTIPTLEIKTARKSSSNTIGLHSYPTSSPNKSISSAPIIGYISSFKTIKTASPSYQTSDLTTITTITSLNNPGSTAVENTHESNDKSRKTSSNDISSKHSVIKETKDAVESSNKSHQTNTLKCSSIIIASSSHNSYESLGGTTLTLTLSKVYSPQNNDTLPFLEISEVNPSRTVLPESSKMMQYLTSTEERNKTARNTIATNIVSISTFHFEGEGNAIRMGYTQLLLMLIGIIVMNIGT
# Experiments:
# Experiment in all cases: glycan array binding signal (z-score within array); higher = stronger binding
# Details in all cases: glycan notation: IUPAC condensed, linker removed; mutation: E227A
# [1] = target: Neu5Gc(a2-8)Neu5Gc(a2-3)Gal(b1-4)GlcNAc(b1-3)Gal(b1-4)GlcNAc
# Summary of the method: (§1)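 The binding signal is a Z-score computed within each array and averaged over linkers. Arrays of the same protein sequence at different concentrations or buffers were also averaged together. Data originate from 3228 arrays in the Consortium for Functional Glycomics database, kept only where the protein sequence was available.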
# [2] = target: Neu5Gc(a2-8)Neu5Gc(a2-6)Gal(b1-4)GlcNAc
# Summary of the method: as §1
# [3] = target: Neu5Gc(b2-6)Gal(b1-4)GlcNAc
# Summary of the method: as §1
binder,measurement,setting,value
B1,glycan array binding signal (z-score),[1],-0.222
same,glycan array binding signal (z-score),[2],-0.213
same,glycan array binding signal (z-score),[3],-0.198

# Reference: the supplement of paper PMC8728848
